Source: paper PMC4336329 (PLoS ONE, 2015)
In all, about 310,000 compounds went through this assay and about 14,000 (4.5%) showed an effect of 50% or more. The effect is printed as a negative number. The list shows a part of the results.

Molecular target: human ether-à-go-go-related gene (hERG) potassium channel (human, UniProt Q12809)
Assay: primary screen, population patch clamp on CHO cells stably expressing hERG
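Further: peak tail current of the secondary pulse compared with the same well before compound.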

human ether-à-go-go-related gene (hERG) potassium channel, sequence (Q12809 whole entry, looked up): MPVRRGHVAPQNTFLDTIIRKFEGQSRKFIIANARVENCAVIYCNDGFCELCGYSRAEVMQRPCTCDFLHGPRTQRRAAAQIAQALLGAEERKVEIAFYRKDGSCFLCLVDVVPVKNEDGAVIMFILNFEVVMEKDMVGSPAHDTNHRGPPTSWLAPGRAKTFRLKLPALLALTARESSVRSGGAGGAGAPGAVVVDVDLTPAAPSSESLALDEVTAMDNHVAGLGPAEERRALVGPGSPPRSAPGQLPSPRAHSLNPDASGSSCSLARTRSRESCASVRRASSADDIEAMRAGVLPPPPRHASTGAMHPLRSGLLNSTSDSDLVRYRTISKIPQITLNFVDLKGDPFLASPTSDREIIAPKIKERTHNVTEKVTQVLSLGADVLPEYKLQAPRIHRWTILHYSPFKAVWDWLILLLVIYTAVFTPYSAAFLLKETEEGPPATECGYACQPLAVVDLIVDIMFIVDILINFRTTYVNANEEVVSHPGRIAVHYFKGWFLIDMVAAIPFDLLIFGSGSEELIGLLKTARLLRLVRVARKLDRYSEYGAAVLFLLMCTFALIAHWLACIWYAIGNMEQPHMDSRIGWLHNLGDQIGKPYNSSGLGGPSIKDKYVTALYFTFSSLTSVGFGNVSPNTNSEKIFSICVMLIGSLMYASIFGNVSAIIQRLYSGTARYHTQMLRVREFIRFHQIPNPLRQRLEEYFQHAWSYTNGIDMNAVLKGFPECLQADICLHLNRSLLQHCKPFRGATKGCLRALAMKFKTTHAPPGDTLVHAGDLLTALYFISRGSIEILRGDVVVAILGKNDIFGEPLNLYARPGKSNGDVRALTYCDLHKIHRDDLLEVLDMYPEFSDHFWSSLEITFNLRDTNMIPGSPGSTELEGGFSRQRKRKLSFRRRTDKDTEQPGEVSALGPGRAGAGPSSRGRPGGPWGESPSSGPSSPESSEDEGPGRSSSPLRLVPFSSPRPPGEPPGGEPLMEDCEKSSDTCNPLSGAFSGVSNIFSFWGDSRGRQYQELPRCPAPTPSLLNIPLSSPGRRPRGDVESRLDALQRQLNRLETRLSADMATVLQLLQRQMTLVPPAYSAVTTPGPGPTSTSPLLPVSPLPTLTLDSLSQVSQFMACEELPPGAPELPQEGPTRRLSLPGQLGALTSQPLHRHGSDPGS

SMILES	hERG current change (%, negative = inhibition) at 10uM [%]
Brc1cccc(CN2CCN(c3ncccn3)CC2)c1	11.7
O=C(N1CCN(c2ccccc2)CC1)C(F)(F)C(F)F	-12.6
COc1ccccc1-n1cnc2cc(NCc3cccs3)ccc21	-29.1
CCOc1ccc(NC(=O)CSc2nnc(C3CC3)n2C)cc1	25.9
Cc1cccc2sc(NC(=O)Cn3cccc3)nc12	-15.5
CCCn1c(=O)c2ccccc2n2c(SCc3c(C(=O)OCC)oc4ccccc34)nnc12	-43.5
Cc1ccc(S(=O)(=O)NNC(=O)c2cc(C)cs2)cc1	13
Clc1cc(Sc2ccc(Br)cc2)nnc1-c1ccccc1	-10.8
CCOC(=O)C1CCCCN1C(=O)CCn1nnnc1CN1CCOCC1 (stereo not shown)	18.9
COc1ccc(NC(=O)c2ccco2)cc1NC(=O)c1cccc(OC(C)C)c1	-96.7
CCOCN(C(=O)CCl)c1c(C)cccc1CC	-2.83
O=S(=O)(c1cccc2cccnc12)N1CCN(c2ccccn2)CC1	2.46
CC(C)C(c1nnnn1Cc1ccccc1)N1CCC(C(N)=O)CC1 (stereo not shown)	-3.23
CC/C(=N\NC(=O)CSCc1ccccc1Br)c1ccc2c(c1)OCCO2	5.26
COc1ccccc1CCC(=O)OCC(=O)Nc1c(C)nn(-c2ccccc2)c1C	-6.38
O=C(Nc1ccc(OC(F)(F)F)cc1)C1CC(c2ccc(F)cc2)=NO1 (stereo not shown)	27.5
COC(=O)c1ccc(COc2ccc(CNCc3ccc(Cl)cc3)cc2)cc1	-0.414
CCN(CC)c1ccc(NC(=O)Cn2c(C(C)NC(=O)c3ccccc3)nc3ccccc32)cc1 (stereo not shown)	21.2
Cc1ccc(O)c(O)c1	1.66
CC(C)c1ccc(S(=O)(=O)N2CCC(C(=O)N3CCC3)CC2)cc1	-9.72
COC(=O)Cn1c(=NC(=O)c2nc3ccccc3s2)sc2cc(S(C)(=O)=O)ccc21	-65.2
CCCCOc1ccc(CN2CCC(O)CC2)cc1	3.42
COc1ccc(C(=O)C2CCCN(C(=O)c3cccc(Cl)c3F)C2)cc1OC (stereo not shown)	-5.57

SMILES	hERG current change (%, negative = inhibition) at 10uM [%]
Cc1cccc(N(CC(=O)Nc2ccc(F)cc2)S(C)(=O)=O)c1	-6.2
Cc1c(Br)c([N+](=O)[O-])nn1CC(=O)NCc1cccs1	-12
CC#CC[N+](C)(C)CCCCCCCC.[Br-]	-40.1
O=[N+]([O-])c1ccc(COc2ccc(-c3[nH]ncc3-c3ccc(Cl)cc3)c(O)c2)cc1	-4.28
CCN(CC)S(=O)(=O)c1ccc(C(=O)NCc2ccc(C)cc2)cc1	-6.85
CCCNC(=O)c1cc(SC)ccc1Cl	-12.8
O=C1Nc2ccccc2C(O)(C(=O)NCc2ccc3c(c2)OCO3)N1c1ccccc1 (stereo not shown)	3.85
O=C(C1COc2ccccc2O1)N1CCN(c2ccccc2F)CC1 (stereo not shown)	9.47
CCOC(=O)C(=O)C1C(=O)Nc2ccccc21 (stereo not shown)	19.6
CS/C(=N/S(=O)(=O)c1ccc(C)cc1)c1ccccc1	-3.56
COc1cc(CNC(C)(C)C)cc(Br)c1OCc1cccs1.Cl	-28.7
CCOC(=O)Cn1c(=O)oc2cc(S(=O)(=O)N3CCCc4ccccc43)ccc21	-26.9
CC(C)(C)C(=O)/C(=C/c1ccncc1)n1cncn1	-5.13
CCOc1ccc(NC(=O)Cc2ccccc2)c([N+](=O)[O-])c1	-7.21
CCCC1C(c2ccccc2)C(C#N)(C#N)C2(C#N)CC1(N)NC2=O (stereo not shown)	6.5
COCc1c(C(=O)Nc2ccc(Cl)cc2F)oc2ccccc12	28.4
CCOc1ccc(-c2cccc(NS(=O)(=O)c3cc([N+](=O)[O-])ccc3Cl)c2)nn1	-11.2
O=C(OCC(=O)N1CCN(C(=O)c2ccco2)CC1)c1cn(-c2ccccc2)nc1-c1ccccc1	-67
CCn1nnnc1SCC(=O)Nc1sc(C)c(C)c1C#N	-2.65
Cc1ccc(C(=O)NCC(=O)N2CCN(c3ncccn3)CC2)s1	-22.7
CCOP(=O)(Cc1ccc(C#N)o1)OCC	21.9
O=C(c1ccc(O)cc1)c1ccc(C(=O)O)c(C(=O)O)c1	23.2
O=[N+]([O-])c1cccc(-c2nnc(CNC3CC3)o2)c1	-26.1

SMILES	hERG current change (%, negative = inhibition) at 10uM [%]
CC(=O)c1cnc(Nc2ccc(C)cc2)s1	7.54
COc1ccc(CNc2c(CO)cnc3c2cnn3C)cc1	-13
Br.Brc1ccc(C2=Nn3c(nnc3-c3cccnc3)SC2)s1	-2.26
Cc1ccc2c(C)c(C(=O)N3CCC(O)(c4ccccc4)CC3)oc2c1C	10.9
CC(c1ccco1)N(C(=O)COc1ccc(Cl)cc1Cl)c1ccccn1 (stereo not shown)	-18.5
CCc1sc(C(=O)Nc2ccccc2N2CCOCC2)cc1C	-17.9
O=C(NCc1ccncc1)c1nc(-c2cccs2)no1	-12.5
CCCCc1ccc(-c2nc(NC(=O)C3C4CCC(O4)C3C(=O)O)sc2C)cc1 (stereo not shown)	1.03
O=C(CSc1nccn(-c2ccc3c(c2)OCCO3)c1=O)Nc1ccccc1	-1.69
COc1ccc(/C=C/C(=O)OCC(=O)c2c(C)[nH]c3ccccc23)cc1OC	-0.339
CCCc1cc(=O)oc2c(C)c(O)c(CN3CCCCC3)cc12	-22.9
COC(=O)CSc1nc(N2CCOCC2)c2c(c1C#N)CCCC2	-12.3
COc1ccc(OC)c(S(=O)(=O)N(C)CC(=O)O)c1	-3.34
CCc1c(C)sc(NC(=O)CN2CCN(C(=O)c3ccco3)CC2)c1C(=O)OC	-39.7
COc1ccc(C2NC(=O)NC(C)=C2C(=O)OCc2ccc3c(c2)OCO3)cc1OC (stereo not shown)	1.09
COc1cc(OC)cc(C(=O)N2CCC(C(=O)NCCc3ccccc3)CC2)c1	6.04
c1ccc2c(-c3nn[nH]n3)cccc2c1	8.31
Cc1ccccc1S(=O)(=O)c1c(C)cc(C)n(CC(C)C)c1=O	9.99
O=C(Nc1ccccc1)N1CCCC(c2nc(-c3cccs3)no2)C1 (stereo not shown)	-24.4
COc1ccc(/C=N\NC(=O)c2ccccc2Br)cc1COc1ccc(F)cc1	17.2
CC(C)Oc1ccc(-c2nn(-c3ccccc3)cc2/C=c2\sc3ncnn3c2=O)cc1	-1.06
COc1cc([N+](=O)[O-])ccc1NC(=O)N1CCCCCC1	-12.9
CS(=O)(=O)c1ccc2nc(NC(=O)C3CC(=O)N(c4ccccc4)C3)sc2c1 (stereo not shown)	-4.25

SMILES	hERG current change (%, negative = inhibition) at 10uM [%]
O=C(CSC1=NCCN1)NC1CCCCCC1	-8.6
Cc1cc(=O)n2[nH]c(SCc3ccccc3)nc2n1	5.28
CCCCc1nnc(NC(=O)CSc2nc(O)c(-c3ccccc3)c(=O)[nH]2)s1	1.48
CC(C)c1nnc(NC(=O)CN2C(=O)c3ccccc3C2=O)s1	-2.22
Cc1ccc(C)c(-n2sc3ccc(F)cc3c2=O)c1	14.7
COC(=O)CC1=NN(c2ccccc2)C(=O)/C1=C\c1ccc(OC)cc1	1.3
CCc1nc2ccc(C(=O)NC3CCC(C)CC3)cc2nc1CC (stereo not shown)	-40.5
CC(=O)c1ccccc1NC(=O)c1ccc2c(c1)NC(=O)C(C)S2 (stereo not shown)	-3.91
CCCN(CCC)S(=O)(=O)c1nc2nc(C)cc(C)n2n1	12.4
COc1cccc(C(=O)NN2CCOCC2)c1	-0.196
CC(NCc1cccc(S(=O)(=O)N(C)C)c1)c1ccc(F)cc1 (stereo not shown)	-4.94
O=C(COC(=O)c1ccc[nH]c1=O)Nc1cc(S(=O)(=O)N2CCCCC2)ccc1Cl	7.9
Cc1ccc(S(=O)(=O)c2c(C)cc(C)nc2Oc2cccc(C(F)(F)F)c2)cc1	13.4
COC(=O)NNC(=O)C1CCC(C(=O)NNC(=O)OC)CC1 (stereo not shown)	-2.6
Cc1c(/C=C2\NC(=O)NC2=O)c2ccccc2n1C	-11.4
Cc1cccc(C)c1N(CC(=O)NCc1ccco1)C(=O)CNS(=O)(=O)c1ccc(F)cc1	-5.63
COc1ccc(Cn2c(=O)[nH]c3cc(C(=O)NC4CCCC4)ccc3c2=O)cc1	15.1
O=C(N/N=C/c1ccncc1)c1ccc(NS(=O)(=O)c2cccs2)cc1	8.88
COc1cccc(C(=O)Cn2c(Br)nc3c2c(=O)n(C)c(=O)n3C)c1	-13.1
COc1ccccc1NC(=O)C1=C(C)Nc2ncnn2C1c1cccs1 (stereo not shown)	12
CC(C)[C@H](NC(=O)c1ccccc1)C(=O)OCC(=O)c1ccc2c(c1)NC(=O)CO2	-26.3
CSc1nnc(C2CCNCC2)n1C.Cl	9.99
